From the RNAGym collection of RNA variant scans (doi:10.7554/elife.90254)
Read counts are not given, so values of variants with three or more changes are uncertain.

B1: OR4K15 (parent)
chain: GUUAACGGUCAUAGGCCAUGGAAACUAGGAGCACCAUUUCGCUGCCAGUGAAGAAAUGAACAAAGAAAAUCUGGGCCAGGCAGGCAUCAAAAGAAAUAGUCUUGCGCUCAACCAGAAAGUCUGUAAUCAUUUUAAGGGUA

Variants of: B1
Assay: self-cleavage, relative activity (ratio to wild type); higher = more cleavage; in vitro, sequencing; the parent is a self-cleaving ribozyme

Row | Variant | self-cleavage
1 | A52G A95G A140G | 2.17
2 | A52G A96G U139C | 1.51
3 | A52G A69U A116U | 0.08
4 | A52G U70G A98G A126G | 0.1
5 | A54G A78U U102C A111G | 0.03
6 | A52G A54G A66G U72C U87C | 0
7 | A52U A55G A118G | 1.42
8 | A52G A59G G80U A89C A117G | 0.21
9 | A51G A67G A86G A92G G137A | 1.16
10 | A51G A67G A94G A110C | 0.5
11 | A52G A94G U100C U108C A135U | 0
12 | G53A A67G A86G A91G A118G | 0.08
13 | A52G U100A U102C U108A | 0.01
14 | A52G A92G A140G | 0.28
15 | A51G U102C A110G | 0.26
16 | A54U A89G A135G | 1.22
17 | A51G U57C U97A | 1.14
18 | A54G A89G G104U A140U | 0.01
19 | A52U A64G A110U | 0.44
20 | A52G A55G U72C C81U A89U | 0.14
21 | A54G A60G A78U U120C | 0.14
22 | A52G A64G U103A U132C | 0.91
23 | A54G A56G U108G A118G | 0.06
24 | A54G A69G A118G U120A | 1.8

Row | Variant | self-cleavage
25 | A55C A67G A86C | 0.59
26 | A52G A60G A64G A118G | 1.1
27 | A54G A55G A67U A69G | 0.96
28 | A52G A82C A86U U139C | 0.14
29 | A52G A90G A125G U131C | 0.1
30 | A52G A92G A114G | 0.15
31 | A52G A111G U131C | 0.02
32 | A52G A62G A92G U122C | 0.48
33 | A51G U108C U122C A126U A129U | 0.01
34 | A51G A86U A125G | 0.78
35 | A54G A60G C88A A118G | 0.48
36 | A54U A64U U139C | 0.26
37 | A54G A56C A68U | 1.74
38 | A52G A59G U108C | 0
39 | A51U A118G U124C | 0.21
40 | A52G U72G A96G | 0.19
41 | A51G U70C A111G | 0.01
42 | A51G U57C A67G | 1.13
43 | A52G A64G A86G A125G | 0.3
44 | A52U A56G A110G | 0.17
45 | A51U A62G U102C | 0.91
46 | A52G A68G A82U | 0.16
47 | A52G A68G A89U | 1.81
48 | A51U A78C U131C | 0.19

Row | Variant | self-cleavage
49 | A51G U72A A86U U102C | 0.77
50 | A51G A68G A86G | 1.08
51 | A52G U57A U97C | 0.35
52 | A54U A60G A64G A90G | 0.28
53 | A51G U57C U124G | 0.34
54 | A54G A90G A92G A94G A96G | 1.05
55 | A51G G58A A68U A94G G123A | 0.65
56 | A54G A92G A110G | 0.07
57 | A51G A63G G80U | 0.14
58 | A51U A68G U72G A89U | 0.06
59 | A51U A55G A59G | 1.27
60 | A52G A78G A90G U124C | 0.11
61 | A52C U72C U102C | 0.25
62 | A54G A78U U131C | 0.08
63 | A54G A116G U131C | 0.32
64 | A51U A91G G104A C107A A111G A140G | 0
65 | A54G A66G A90G | 0.8
66 | A51U A78U U100C U103A U122C | 0.13
67 | A52G A63G A67G A69C A89G A92G U133A | 1.78
68 | A52G A62U U108C | 0.03
69 | A52G A69G U87A A126G | 0.39
70 | A52G U108C U124C | 0
71 | A51G A64G U108C | 0.02
72 | A54G U102C C105U | 0.55

Row | Variant | self-cleavage
73 | A52G A60G U87C U122A | 0.58
74 | A51G A67G U139C | 1.31
75 | A52G U120C U130C | 0.73
76 | A51G U100C U127C | 1.89
77 | A54G A68G A90G A96G U100C U133A | 2.39
78 | A51U A64G A110G | 0.11
79 | G53U A64G A118G U122C A125G | 0.85
80 | A52G U70C A82U | 0.18
81 | A51U A55U U87C | 1.25
82 | A54G A82G A94U | 0.17
83 | A54C A78U A86G | 0.11
84 | A52U U57A A129U | 0.98
85 | A54G A117G U127A | 1.83
86 | A54G U87C U97A A116G U127C U131C | 0.09
87 | A52G A60G U127C | 0.81
88 | A52G A59G A90G A92G | 0.44
89 | A54U A56G A66U A125U | 0.89
90 | A54G A67G A94G A114G | 0.56
91 | A52G G74U U102C | 0.21
92 | A54G U103C C112U | 0.02
93 | A52G A59G A89G | 1.25
94 | A54G A89G A91G | 1.08
95 | A54G A69U A117U U130C | 0.74
96 | A54U A64U A67G A78U U97C | 0.14

Row | Variant | self-cleavage
97 | A54G A90G A114C | 0.01
98 | A52G A54U A60G | 0.69
99 | A52G A59U U132C | 1.45
100 | A52U U87C U100C | 2.34
101 | G53U A59G U72A U87C U122C U131C | 0.08
102 | A52G A66G U132C | 1.73
103 | A52G A110U A134G | 1.06
104 | A51G A68G U72C A94G U122C | 0.07
105 | A52C A63G A68G A78G A116G | 0.26
106 | A54U U97C A129G | 0.92
107 | A54U G74U U120C | 0.12
108 | A52G A68G U108C | 0.01
109 | A54G A63U U120C A135G | 0.78
110 | A54G A78U U87A | 0.2
111 | A52G A60G A68G A96G U102A C109U | 0.09
112 | A52G A60U A117G | 1.28
113 | A54G A55G A68G A90G | 1.81
114 | A52U A69G A140U | 0.97
115 | A51G A82G U120A | 0.66
116 | A51G A68G U70C A134U | 0.61
117 | A51U A63U C76U C107G A114U | 0.01
118 | A54G A94G A135U | 2.05
119 | A52G G58A A69U A82G C112U A117G U122G | 0.01
120 | A51G A86G A117G | 1.63

Row | Variant | self-cleavage
121 | A52G A116G U130C | 0.8
122 | A51U A66U A86U U87C U124A | 0.23
123 | A52U U100C U120C | 2.62
124 | A54G A126G U131C | 1.08
125 | A55C U103C U122A | 0.42
126 | A54G A91U A95G | 0.89
127 | A51G A96G U102C U120G | 1.89
128 | A54G A116G U127C A135U | 0.76
129 | A52G A64U A111G A126G | 0.02
130 | A52C A54G A118G | 0.89
131 | A51G A63G A68G | 1.62
132 | A52G A63G G123A | 1.28
133 | A51G A94G U132C | 1.83
134 | A51U A59G A117G G138A | 1.13
135 | A54G A90G A96U | 1.48
136 | A52G A54G U100C | 2.03
137 | A54G A91U U100G | 1.77
138 | A52G U131C U139C | 0.35
139 | A52G A56G A59G A60G A95G A110U | 1.11
140 | A52G U57C A59G U100A | 0.52
141 | A54U U57C U70C U122A | 0.88
142 | A51U A90G A110G | 0.14
143 | A52G A63G A64G U102C A118G U122C | 1.91
144 | A51U A62G U102A U108C A118G | 0.01

Row | Variant | self-cleavage
145 | A51G A91U U102C | 1.92
146 | A52G U57C A118G U131C G138A | 0.62
147 | A52G A91G A118G | 1.44
148 | A54G A55G U70C | 0.9
149 | A51G U108C A134G | 0.03
150 | A51G A67G A95C | 0.85
151 | A54G A66U A92G | 2.05
152 | A52G A78G G119A | 0.34
153 | A52U A117G C128U | 0.75
154 | A52G A59G U127A | 1.15
155 | A52U U87C A94G | 0.93
156 | A52G A55G A64U U87A U97C U130C | 0.58
157 | A51G A110G U131C | 0.06
158 | A54G A69G U130C | 1.78
159 | A54G U57C A90G | 0.52
160 | A54U A82G A94G U108C U124C U130C | 0
161 | A54G A59G U124C | 0.57
162 | A54G A69C U108C | 0.01
163 | A52G A63G A78G U108C U131C | 0.01
164 | A54U A82G A89G A96C | 0.06
165 | A51G A69G U87A | 1.26
166 | A54G A95G A96U | 1.43
167 | A51G U57C A118G | 0.53
